The RNAGym collection of RNA variant scans (doi:10.7554/elife.90254)
Read counts are not given, so values of variants with three or more changes are uncertain.

B1: LINE1-full (parent)
chain: UACGUAGGUGGUUUUCCCCUGAUAGUGCUAAGGGGGCCUGGAAGUUUGGACUGGGCAGAGCUCAACACAGCGUGGCAAAGUGGCUGUGGCUAGACUGCCUCUCUGGAUUCCUCGUCACUCAGCAGGGCAUCUCUGAGAGAAAUGCC

Variants of: B1
Test: self-cleavage, relative activity (ratio to wild type); higher = more cleavage; in vitro, sequencing; the parent is a self-cleaving ribozyme
UGCGUAGGUGGUUUUCCCCUGAUAGUGCUAAGGGGGCCUGGAAGUUUGGACUGGGCAGAGCUCAACACAGCGUGGCAAAGUGGCUGUGGCUAGACCGCCUCUCUGGAUUCCUCGUCACUCAGCAGGGCAUCUCUGAGAGAAGUGCC showed a self-cleavage of 0.19.
Work on UACGUAGGUGGUUUUCCCCCGGUAGUGCUAAGGGGGCCUGGAAGCUUGGACUGGGCAGAGCUCAACACAGCGUGGCAAAGUGGCUGUGGCUAGACUGCCUCUCUGGAUUCCUCGUCACUCAGCAGGGCAUCUCUGAGAGAAAUGCC yielded a self-cleavage of 0.61.
For UACGUAGGUGGUUUUCCCCUGAUAGUGCUAAGGGGGCCUGGAAGUUUGGACUGGGCAGAGCUCAACACAGCGUGGCAAAGAGGCUGUGGCUAGACUGCCUCUCUGGAUUCCACGUCACCCAGCAGGCCAUCUCUGAGAGAGAUGCC, the self-cleavage was 2.91.
Work on UACGUAGGCGGUUUUCCCCUAAUAGUGCUAAGGGGGCCUGGAAGUUUGGACUGGGCAGAGCUCAACACAGCGUGGCAAAGUGGCUGAGGCUAGACUGCCUCUCUGGAUUCCCCGUCACUCAGCAGGGCAUCUCUGAGAGAAAUGCC yielded a self-cleavage of 0.1.
With UACGUAGGUGGUUUUCCCCUGAUAGUGCUAAGGGGGCCUGGAAGUUUGGACUGGGCAGAGCUCAACACGGCGUGGCAAAGUGGCUGUGGCUAGACUGCCUCUCUGGAUUCCUCGUCACUCAGCAGGGCAUCUCUGGGAGGAAUGCC the self-cleavage was 0.92.
In the case of CACGUAGGUGGUUUUCCCCUGAUAGUGCUAAGGGGGCCUGGAAGUUUGGACUGGGCAGAGCUCAGCACAGCGUGGCAAAGUGGCUGCGGCUAGACUGCCUCUCUGGAUUCCUCGUCACUCAGCAGGGCAUCUCUGAGAGAAAAGCC, the self-cleavage is reported as 0.
Work on UACGUAGGUGGUUUUCCCCUGAUAGUGCUAAGGGGGCCUGGAAGUUUGGACUGGGCAGAGCUCAACACAGCGUGGCAAAGUGGCUGUGGCCAGACUGCCUCUCUGGAUUCCUCGUCACUCAGCAGGGCGUCUCAGAGAGAAAUGCC yielded a self-cleavage of 0.5.
Work on CACGUAGGUGGUUUUCCCCUGAUAGUGCUAAGGGGGCCUGGAAGCUUGGACUGGGCAGAGCUCAACACAGCGUGGCAAAGUGGCUGUGGCUAGACUGCCUCUCUGGAUUCCUCGUCGCUCAGCAGGGCAUCUCCGAGAGAAAUGCC yielded a self-cleavage of 0.92.
UACGUAGGUGGUUUUCCCCUGAUAGUGCUAAGGGGGCCUGGAAGUUUGGACUGGGCAGGGCUCAACACAGCGUGGCAAAGUGGCUGUGGCUAGACUGCCUCUCUGGAUUCCUCGUCAUUCAGCAGGGCAUCUCUGUGAGAAAUGCC showed a self-cleavage of 0.12.
For UACGUAGGUGGUUUUCCCCUGAUAGUGCUUAGGGGGCCUGGAAGUUUGGACUGGGCAGAGCUCAGCACAGCGUGGCAAAGUGGCUGUGGCUAGACUGCCUCUCUGGAUUCCUCGUCACUCAGCAGGGCAUCUCAGAGAGAAAUGCC, the self-cleavage was 0.04.
Work on UACGUAGGCGGUUUUCCCCUGAUAGUGCUAAGGGGGCCUGGAAGUUUGGACUGGGCAGAGCUCAACACAGCGUGGCAAAGCGGCUGUGGCUAGACUGCCUCUCUGGAUUCCUCGUCGCUCAGCAGGGCAUCUCUGAGAGAAAUGCC yielded a self-cleavage of 1.71.
Variant UACGUAGGUGGUUUUCCCCUGAUAGUGCUAAGGGGGCCUGGAAGUUUGGACUGGGCAGAGCUCAACACAGCGUGGCGAAGUGGCUGUGGCUUGACUGCCUCUCCGGAUUCCUCGUCACUCAGCAGGGCAUCUCUGAGAGAAAUGCC has a self-cleavage of 0.94.
For UACGCAGGUGGUUUUCCCCUGAUAGCGCUAAGGGGGCCUGGAAGUUUGGACUGGGCAGAGCUCAACACAGCGUGGCUAAGUGGCUGUGGCUAGACUGCCUCUCUGGAUUCCUCGUCACUCAGCAGGGCAUCUCUGAGAGAAAUGCC, the self-cleavage was 1.02.
UACGUAGGUGGUUUUCCCCUGCUAGUGCUAAGGGGGCCUGGAAGUUUGGACUGGGCAGAACUCAACACAGCGUGGCAAAGUGCCUGUGGCUAGACUGCCUCCCUGGAUUCCUCGUCCCUCAGCAGGGCAUCUCUGAGAGAAAUGCC showed a self-cleavage of 0.03.
UACGUAGGUGGUUUUCCCCUGAUAGUGCUAAGGGGGCCUGGAAGUUUGGACUGGGCAGAGCCCAACACAGCGCGGCAAAGUGGCUGUGGCUAGACCGCCUCUCUGGAUUCCUCGUCACUCAGCAGGGCAUCUCUGAGAGAAAUGCC showed a self-cleavage of 0.
In the case of UACGUAGGUGGUUUACCCCUGAUAGUGCUAAGGGGGCCUGGAAGUUUGGACUGGGCGGAGCUCAACACAGCGUGGCUAAGUGGCUGUGGCUAGACAGCCACUCUGGAUUCCUCGUCACUCAGCAGGGCAUCUCUGAGAGAAAUGCC, the self-cleavage is reported as 0.07.
Work on UACGUAGAUGGUUUCCCCCUGAUAGUGCUAAGGGGGCCUGGAAGUUUGGAAUGGGCAGAGCUCAACACAGCGUGGCAAAGUGGCUGUGGCUAGACAGCCUCUCUGGAUUCCUCGUCACUCAGCAGGGCAUCUCUGAGAGAAAUGCC yielded a self-cleavage of 0.15.
UACGUAGGUGGUUUUCCCCUGAUAGUGCUAAGGGGGCCUGGAAGUUUGGACUGGGCAGAGCUCAACGCAGCGUGGCAAUGUGGCUGUGGCUAGACUGCCUCUCCGGAUUCCUCGUCACUCAGCAGGGCAUCACUGAGAGAAAUACC showed a self-cleavage of 0.42.
With UACGUAGGUGGUAUUCCCCUGAUAGUGCUAAGGGGGCCUGGAAGUUUGGACUGGGCAGAGCUCAACACAGCGUGGCAAAGUGGCUGUGGCUUGACUGCCUCUCUGGAUUCCUCGUCACUCAGCAGGGCACCUCUGAGAGAAAUGCC the self-cleavage was 0.29.
In the case of UACGUAGGUGGUUUUCCCCUGAUAGUGCUAAGGGGGCCUGGAAGUUUGGACUGGGCAGAGCUCAACACAGCGUGGCAAAGUGGCUGUGGCUAGACUGCCUCCCUGGAUUCCUCGUCACACAGCAGGGCCUCUCUGAGAGAAAUGCC, the self-cleavage is reported as 1.27.
Variant UACGUAGGUGGUUUUCCCCUGAUAGUGCUAAGGGGGCCUGGAAGUUUGGACUGGGCAGAGCUCAACACAGCGUGGCAAAGUGGCUGCGGCUAGACUGCCUCUCUGGAUUCCUCGGCACUCAGCAGGGCAUCCCUGAGAGAAAUGCC has a self-cleavage of 0.
Work on UACGUAGGUGGUUUUCCCCUGAUAGUGCUAAGGGGGCCUGGAAGCUUGGACUGGGCAGAGCUCAACACAGCGUGGCAAAGUGGCUGUGGCUAGGCCGCCUCUCUGGAUUCCUCGUCACUCAGCAGGGCAUCUCUGAGAGAAAUGCC yielded a self-cleavage of 0.
In the case of UACGUAGGUGGUUUUCCCCUGAUAGUGCUAAGGGGGCCUGGAAGUUUGGUCUGGGCAGAGCUCAACACAGCGUGGCAAAGAGGCUGUGGCUAGACUGCCUCUCUGGAUUCCUCGUCACUCAGCAGGGCAUCUCUGGGAGAAAUGCC, the self-cleavage is reported as 2.15.
UACGUAGGUGGUUUUCCCCCGAUAGUGCUAAGGGGGCCUGGAGGUUUGGACUGGGCAGAGCUCAACACAGCGUGGCAAAGUGGCUGUGGCUAGACUGCCUCUCUGGAUUCCUCGUCACUCAGCAGGGCAUCUCUGAGAGAAGUGCC showed a self-cleavage of 1.52.
With UACGUAGGCGGUUUUCCCCUGAUAGUGCUAAACGGGCCUGGAAGUUUGGACUGGGCAGAGCUCAACACAGCGUGGCAAGGUGGCUGUGGCUAGACUGCCUCUCUGGAUUCCUCGUCACCCAGCGGGGCAUCUCUGAGAGAAAUGCC the self-cleavage was 0.
With UACGUAGGUGGUUUUCCCCUGAUAGUGCUAAGGGGGCCUGGAAGUUUGGACUGGGCAGGGCUCAACACAGCGUGGCAAAGUGGCUGUGGCUAGACUGCCUCUCUGGAUUACUCGUCACUCAGCAGGGCAUCUCUGAGGGAAAUGCC the self-cleavage was 0.07.
UACGUAGGUGGUUUUCCCCCGAUAGAGCUAAGGGGGCCUGGAAGUUUGGUCUGGGCAGAGCUCAACACAGCGUGGCAAAGUGGCUGUGGCUAGACUGCCUCUCUGGAUCCCUCGCCACUCGGCAGGGCAUCUCUGAGAGAAAUGCC showed a self-cleavage of 0.
Variant UACGUAGGUGGUUUUCCCCCGAUAGUGCUAAGGGGGCCUGGAAGUUUGGACUGGGCAGAGCUCAACACAGCGUGGCAACGUGGCUGUGGCUAGACUGCCUCUCUGGAUUCCUCGUCACUCAGCAGGGCAACUCUGAGAGAAAUGCC has a self-cleavage of 2.7.
Work on UACGUAGGUGGUUUUCCCCUGAUAGUGCUAAGGGGGCCUGGAAGUUUGGACUGGGCAGAGCUCAACACAGCGUGGCAAAGUGGCAGUGGCUAGAUUGCCUCUCUGGAUUCCUCGUCGCUCAGCAGGGCAUCUCUGAGAGAGAUGCC yielded a self-cleavage of 0.09.
Work on UACGUAGGUGGUUUCCCCCUGAUAGUGCUAAGGGGGCCUGGAAGUUUGGACUGGGCAGAGCUCAGCACAGCGCAGCAAAGUGGCUGUGGCUAGACUGCCUCUCUGGAUUCCCCGUCACUCAGCAGGGCAUCUCUGAGAGGAAUGCC yielded a self-cleavage of 0.05.
In the case of UACGUAGGUGGUUUUCCCUUGAUAGUGCUUAGGGGGCCUGGAGGUUUGGACUGGGCAGAGCUCAACACAGCGUGGCAAAGUGGCUGUGGCUAGACUGCCUCUCUGGAUUCCUCGUCACUCAGCAGGGCAUCUCUGAGAGAAAUGCC, the self-cleavage is reported as 0.38.
UACGUAGGUGGUUUUCCCCUGAUAGUGCUAAGGGCGCCUGGAAGUUUGGACUGGGCAGAGCUCAACACAGCGAGGCAAAGUGGCUGUGGCUAGACUGCCUCUCUGGAUUCCUCGUCACUCAGCAGGGCAUCUCUGUGAGAAAUGCC showed a self-cleavage of 1.01.
UACGUAGGUGGUUGUCCCCUGAUAGUGCUAAGGGGGCCUGGAAGCUUGGACUGGGCAGAGCCCAACACAGCGUGGCAGAGUGGCUGUGGCUAGACUGCCUCUCUGGAUUCCUCGUCACUCAGCAGGGCAUCUCUGAGAGAAAUGCC showed a self-cleavage of 0.
Work on UACGUAGGUGGUUUUCCCCUGAUAGUGCUAAGGGGGCCUGGGAGUUUGGACUGGGCAGAGCUCAACACAGCGUGGCAAAGUGGCUGUGGCUAGUCUGCCUCUCUGGAUUCCUCGUCACUCAGCAGGGCAUCUCUGAGAGAGAUGCC yielded a self-cleavage of 0.27.
UACGAAGGUGGUUUUCCCCUGAUAGUGCUAAGGGGGCCUGGAAGUUUGGACUGGGCAGAGCCCAACACAGCGUGGCAAAGUGGCUGAGGCUAGACUGCCUCUCUGGAUUCCUCGUCACUCAGCAGGGCACCUCUGAGAGAAAUGCC showed a self-cleavage of 0.
For UACGUAGGUGGUUUUCCCCUGAUAGUGCUAAGGGGGCCUGGAAGUUUGGGCUGAGCGGAGCUCAACACAGCGUGGCAAAGUGGCUGUGGCUAGACUGCCUCUCUGGAUUCCCCGUCACUCAGCUGGGCAUCUCUGAGAGAAAUGCC, the self-cleavage was 0.
For UACGUAGGUGGUUUUCCCCUGAUAGUGCUGAGGGGGCCUGGAAGUUUGGACUGGGCAGAGCUCAUCACAGCGUGGCAAAGUGGCUGUGGCUAGACUGCCUCUCUGGAUUCCUCGUCACUCCGCAGGGCAUCUCUGAGAGAAAUGCC, the self-cleavage was 0.49.
UACGUAGGUGGCUUUCCCCUGAUAGUGCUAAGGGGGCCUGGAAGUUUGGACUGGGCAGAGCUCAACACAGCGUGGCAUAGUGGCUGUGGCUAGACUGCCUCUCUGGAUUCCUCGUCACUCAGCAGGGCAUCUCUGGGAGAAAUGCC gave a self-cleavage of 1.97.
In the case of UACGUAGGUGGUUUUCCCCUGAUAGUGCUAAGGGGGCCUGGAAGUUUGGACUGGGCAUAGCUCAACACAGCGUGGCAAAGUGGCUGUGGCUAGACUGCCUCUCUGGAUUCCUCGUCACUCAGCAGGGCGUCUCUGAGAGAAGUGCC, the self-cleavage is reported as 0.02.
